# Data from publication PMC4336329 (PLoS ONE, 2015).
# Screen size: about 310,000 compounds; about 2,200 (0.71%) showed an effect of 50% or more. The effect is printed as a negative number. The list shows a part of the results.
# Target: human ether-à-go-go-related gene (hERG) potassium channel (human, UniProt Q12809)
# Experiment: primary screen, population patch clamp on CHO cells stably expressing hERG
# Sequence of human ether-à-go-go-related gene (hERG) potassium channel (Q12809 whole entry, looked up): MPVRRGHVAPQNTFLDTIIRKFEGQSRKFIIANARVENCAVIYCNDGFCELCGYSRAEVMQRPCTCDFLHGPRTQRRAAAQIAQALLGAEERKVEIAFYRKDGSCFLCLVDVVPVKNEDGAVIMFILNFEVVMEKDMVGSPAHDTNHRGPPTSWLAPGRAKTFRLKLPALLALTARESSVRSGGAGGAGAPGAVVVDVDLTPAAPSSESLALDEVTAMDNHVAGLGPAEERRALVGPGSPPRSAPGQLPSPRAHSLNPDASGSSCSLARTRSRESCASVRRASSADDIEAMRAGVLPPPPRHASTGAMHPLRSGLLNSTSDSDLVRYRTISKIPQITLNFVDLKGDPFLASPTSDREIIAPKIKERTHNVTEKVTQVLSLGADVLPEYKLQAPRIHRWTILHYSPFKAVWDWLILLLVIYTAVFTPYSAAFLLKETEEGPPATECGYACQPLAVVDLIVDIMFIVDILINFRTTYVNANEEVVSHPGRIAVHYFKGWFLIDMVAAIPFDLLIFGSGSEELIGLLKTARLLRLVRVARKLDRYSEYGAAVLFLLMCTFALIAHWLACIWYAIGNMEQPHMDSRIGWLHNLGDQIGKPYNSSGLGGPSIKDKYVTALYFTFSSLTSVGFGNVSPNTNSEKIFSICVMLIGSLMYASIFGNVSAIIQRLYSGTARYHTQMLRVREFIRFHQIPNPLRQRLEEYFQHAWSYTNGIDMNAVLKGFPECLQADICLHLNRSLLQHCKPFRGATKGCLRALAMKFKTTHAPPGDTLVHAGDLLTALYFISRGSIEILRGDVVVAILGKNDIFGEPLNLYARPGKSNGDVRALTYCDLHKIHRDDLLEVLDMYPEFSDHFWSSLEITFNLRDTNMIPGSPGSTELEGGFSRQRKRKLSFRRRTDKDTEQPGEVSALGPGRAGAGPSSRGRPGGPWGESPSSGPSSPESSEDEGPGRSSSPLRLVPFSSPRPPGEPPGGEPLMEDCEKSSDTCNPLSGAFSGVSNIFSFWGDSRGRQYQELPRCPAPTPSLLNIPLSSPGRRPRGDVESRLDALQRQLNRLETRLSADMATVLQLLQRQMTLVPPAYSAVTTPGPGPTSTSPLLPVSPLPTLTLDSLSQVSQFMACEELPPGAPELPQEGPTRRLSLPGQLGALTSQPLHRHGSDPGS
row,SMILES,"hERG current change (%, negative = inhibition) at 1uM"
1,CC(=O)c1cccc(NC(=S)N2c3ccccc3CC2C)c1 (stereo not drawn),6.39%
2,O=C(CSc1ccc(-c2nc3ccccc3[nH]2)cn1)Nc1ccc2c(c1)OCCO2,13.3%
3,O=C(Cc1ccc(Br)cc1)N/N=C/c1ccc(-c2cccc(C(=O)O)c2)o1,10.3%
4,CCCCN1C(Nc2ccccc2)=NC[C@@H]1CC(C)C,-4.5%
5,O=c1[nH]c2ccccc2nc1/C=C(\O)C(F)F,17.6%
6,O=C1NCC2=C1C(c1ccc(Br)cc1)Nc1ccccc1N2 (stereo not drawn),-13.2%
7,CC1CCC(NC(=O)COC(=O)c2ccc3ncsc3c2)CC1 (stereo not drawn),12.9%
8,C/C=C1/CN2[C@@H]3C4CO[C@@H]3c3c([nH]c5cc(OC)ccc35)[C@@H]2CC14 (stereo partly drawn),7.54%
9,Cc1cc(=O)oc2cc(OC(=O)CCN3C(=O)c4ccccc4C3=O)ccc12,7.83%
10,O=C(CNC1CC1)Nc1cc(C(F)(F)F)ccc1Cl.O=C(O)C(=O)O,12.9%
11,COc1ccc(N2C(=O)CC(Sc3nccc(C)n3)C2=O)cc1 (stereo not drawn),8.52%
12,Cc1sc2ncnc(SCC(=O)NCC3CCCO3)c2c1C (stereo not drawn),7.17%
13,CCCc1nc(SCC(=O)Nc2nccs2)c2ccccc2n1,12.9%
14,Clc1ccc(OCCN2CCOCC2)cc1Cl,13.4%
15,OCC[n+]1ccc(/C=C/c2c[nH]c3ccccc23)cc1,5.84%
16,CCOc1ccc(NC(=O)CCSc2nc3c(c(CC)c2C#N)C(=O)CC(C)(C)C3)cc1,7.21%
17,O=C(O)/C(=C\c1cccs1)c1ccccc1,5.14%
18,CCc1noc(C)c1C(=O)Nc1cc(Cl)ccc1-n1cncn1,1.58%
19,O=S(=O)(/C=C/c1ccccc1)N1CCN(c2nc(-c3ccccc3)nc3ccccc23)CC1,11.4%
20,C/C=C(\C)CN1CCC(Oc2cccc(C(=O)NCc3ccccn3)c2)CC1,7.58%
21,COCCNC(=O)c1cc(-c2ccccc2)nn1CC1CC(c2cccnc2)=NO1 (stereo not drawn),19.3%
22,CCN(C(=O)C1CCCO1)c1ccccc1 (stereo not drawn),15.1%

row,SMILES,"hERG current change (%, negative = inhibition) at 1uM"
1,N=C1/C(=C/c2ccc(OCc3ccccc3F)cc2)C(=O)N=C2SC(CC(=O)N3CCOCC3)=NN12,12.2%
2,COc1ccc(C2=NCCn3nc4ccccc4c32)cc1,7.48%
3,CCCCOC(=O)c1ccc(NC(=O)COC(=O)C2CSC3(C)CCC(=O)N23)cc1 (stereo not drawn),15.2%
4,CS(=O)(=O)N1CCN(S(=O)(=O)c2ccccc2[N+](=O)[O-])CC1,16.2%
5,COc1ccccc1/C=C/C(=O)N1CCN(S(=O)(=O)c2cc(C)ccc2C)CC1,13.1%
6,Cc1ccc(S(=O)(=O)N2CCC(C(=O)NNC(=O)c3cccnc3)CC2)cc1,3.13%
7,COc1ccc(NS(=O)(=O)c2ccc3c(c2)NC(=O)C(C)S3)cc1 (stereo not drawn),13%
8,C=CCN1C(=O)/C(=C\c2ccco2)C(C(=O)OC)=C1C,3.12%
9,Cc1ccc(-n2ncc3c(=O)n(CC(=O)N(C)C)cnc32)cc1,9.92%
10,Cc1cc(F)ccc1Oc1cc(NN2CCCCC2)c([N+](=O)[O-])cc1[N+](=O)[O-],9.35%
11,S=c1[nH]nc(C2CCCCC2)n1/N=C/c1cccs1,4.69%
12,CCOC(=O)[C@H]1[C@H]2COc3ccc(OC)cc3[C@@H]2N2C(=O)[C@H](C)NC(=O)[C@@]12C,12.7%
13,Cc1cc(C)c(C)c(S(=O)(=O)N2CCC(C(=O)Nc3ccncc3)CC2)c1C,3.76%
14,O=C(O)c1ccc(C(=O)Nc2cccc(NC(=O)C3CCCO3)c2)cc1 (stereo not drawn),-0.421%
15,Cc1ccnc(N2C(=O)c3ccccc3C2O)c1 (stereo not drawn),8.24%
16,CCCN1C(=O)c2ccccc2NC1c1cc(OC)c(OC)c(OC)c1 (stereo not drawn),0.782%
17,CC(=O)Nc1ccc(C(=O)NNC(=O)CCc2ccccc2)cc1,18%
18,COc1ccc2oc(C(=O)NCc3ccccc3CN3CCCC3)c(C)c2c1,-27.2%
19,COc1ccc(CN2C(=O)NC(=O)/C(=C\c3cccc(OC)c3OC)C2=O)cc1,11.1%
20,O=C1c2ccccc2C(=O)N1Cc1ccco1,8.55%
21,COc1ccc(-c2oc3c(CC=C(C)C)c(O[C@@H]4O[C@H](CO)[C@@H](O)[C@H](O)[C@H]4O)cc(O)c3c(=O)c2O[C@@H]2O[C@@H](C)[C@H](O)[C@@H](O)[C@H]2O)cc1,0.935%
22,CCN(CC)CCNC(=O)c1cc2c(=O)n(C)c3ccccc3c2s1,10.8%

row,SMILES,"hERG current change (%, negative = inhibition) at 1uM"
1,CC(=O)Nc1ccc(S(=O)(=O)N2CCC(C(=O)N[C@@H](Cc3ccccc3)C(=O)O)CC2)cc1,10.1%
2,CCOc1ccc(S(=O)(=O)N2CCCC(C(=O)N3CCC(C(N)=O)CC3)C2)cc1Cl (stereo not drawn),13.2%
3,Cc1cc(C)cc(NC(=O)C2CCCN2C(=O)NC2CCCCC2)c1 (stereo not drawn),13.9%
4,C=CCNc1nc(C2(C)CC3(CC(C)OC3=O)C(=O)O2)cs1 (stereo not drawn),6.48%
5,Brc1cc(Br)cc(CN2CCSCC2)c1,11.8%
6,CC(Sc1nc(N)cc(=O)[nH]1)C(=O)NC1CCCCC1 (stereo not drawn),1.47%
7,N#CC1=C(N)C(C#N)(C#N)[C@H](c2ccoc2)[C@H]2CN(Cc3ccccc3)CC=C12,-3.71%
8,O=C(O)CSc1nccc2ccccc12,19.9%
9,COc1ccccc1CN(Cc1nc2ccccc2c(=O)[nH]1)S(=O)(=O)c1ccc(C)cc1,6.96%
10,CN(c1ccccc1)S(=O)(=O)c1ccc(C(=O)Nc2nnc(-c3ccco3)o2)cc1,9.24%
11,CCOc1ccc(C(=O)OC2CC3CCC(C2)N3C)cc1.Cl (stereo not drawn),-0.916%
12,C=CCNC(=O)Nc1ccc(OCC)cc1,-1.27%
13,CCN(C(=O)CN1C(=O)c2ccc([N+](=O)[O-])cc2C1=O)C1CCS(=O)(=O)C1 (stereo not drawn),17.2%
14,O=c1oc2c3c4c(cc2c(C(F)(F)F)c1CCN1CCOCC1)CCCN4CCC3,9.79%
15,CC1=CC(C)(C)n2c(O)c(N=NC(N)=S)c3c(C)c(C)cc1c32,13.8%
16,O=C(COC(=O)c1cccc(C(=O)OCC(=O)NCc2ccc(F)cc2)n1)NCc1ccc(F)cc1,12.6%
17,O=C(CC1NCCc2ccccc21)Nc1ccc(Cl)cc1 (stereo not drawn),3.57%
18,CCOc1ccc(/C=N/OCC(=O)NC(c2ccccc2)c2ccccc2)cc1,10.8%
19,Cc1ccccc1NC(=O)COc1ccc2oc(=O)cc(C)c2c1,2.3%
20,Cn1c(=O)[nH]c(=O)c2c1nc(SCCN1CCOCC1)n2Cc1ccccc1,-12%
21,Cc1cccc(C(CC(=O)O)NC(=O)C(F)(F)F)c1 (stereo not drawn),11%
22,COc1cccc(N2C(=NC(=O)COc3ccccc3)SC3CS(=O)(=O)CC32)c1 (stereo not drawn),13.8%

row,SMILES,"hERG current change (%, negative = inhibition) at 1uM"
1,COc1ccc(CNC(=O)CCn2c(=O)[nH]c3ccccc3c2=O)cc1,11.7%
2,Cc1cc(C)nc(Nc2ccccc2Br)n1,21.3%
3,O=C(NNC(=S)Nc1ccccc1Cl)c1ccccc1Cl,14.7%
4,O=C(CCc1c[nH]c2ccccc12)OCc1cccc([N+](=O)[O-])c1,13.2%
5,CC(C)(C)c1cc(N2CCOCC2)n2ncc(-c3ccc(Cl)cc3)c2n1,12.9%
6,COc1ccc(-n2c(C)nc3cc(C(=O)N4CCOCC4)ccc32)cc1,-5.31%
7,Cc1c(O)ccc2c(-c3ccccc3)cc(=O)oc12,10.7%
8,O=C(N/N=C/c1ccoc1)c1ccc([N+](=O)[O-])cc1,15.4%
9,COc1ccc(C(C)=O)cc1COc1ccc(F)cc1,12.5%
10,O=C(CCS(=O)(=O)c1ccc2c(c1)NC(=O)CS2)NCc1ccccc1Cl,11.3%
11,O=C(CCCn1c(SCC(=O)Nc2ccccc2Cl)nc2ccccc2c1=O)NCC1CCCO1 (stereo not drawn),14.5%
12,CC(C)CN(C(=O)c1ccc(F)cc1F)c1c(N)n(CC(C)C)c(=O)[nH]c1=O,4.11%
13,Cn1ccnc1SCC(=O)Nc1ccc2ccccc2c1,0.696%
14,CC(C)(C)[C@@H]1CCC(=O)N(CC[C@H](N=[N+]=[N-])c2ccccc2)CC1,8.71%
15,Cc1ccc2c(c1)c1nc3ccccc3nc1n2CCN1CCOCC1,-5.66%
16,c1ccc(-n2cnnc2SCc2cn3cccnc3n2)cc1,6%
17,O=C(Cn1c(=O)oc2cc(S(=O)(=O)N3CCCC3)ccc21)Nc1ccc(C(F)(F)F)cc1,9.99%
18,CC(=O)NCC(=O)NNC1CC(=O)N(c2cccc(Cl)c2)C1=O (stereo not drawn),12%
19,Cn1c(=O)n(C)c2cc(/C=N/NC(=O)c3cccc(Br)c3)ccc21,14.1%
20,Cc1ccc(-n2nnc(-c3cc4ccccc4nc3Cl)n2)cc1,23.6%
21,CCOC(=O)c1cn2nc(OP(=S)(OCC)OCC)cc2nc1C,-6.14%
